Measured values as given in the RNAGym collection of RNA variant scans (doi:10.7554/elife.90254).
The source gives no read counts; variants with many changes may rest on few reads.

B1: LINE1-full (parent)
chain: UACGUAGGUGGUUUUCCCCUGAUAGUGCUAAGGGGGCCUGGAAGUUUGGACUGGGCAGAGCUCAACACAGCGUGGCAAAGUGGCUGUGGCUAGACUGCCUCUCUGGAUUCCUCGUCACUCAGCAGGGCAUCUCUGAGAGAAAUGCC

Variants of: B1
Assay: self-cleavage, relative activity (ratio to wild type); higher = more cleavage; in vitro, sequencing; the parent is a self-cleaving ribozyme

| Variant | self-cleavage |
| --- | --- |
| U5A A57G U115C | 0.92 |
| A22G A65U C103U U109A | 0.13 |
| U13A U26C U87C A136U | 0.54 |
| A59U U100C U102C | 1.36 |
| U9A A57U A138G U143A | 0.22 |
| A69U A121G A141G | 0 |
| U1C A6U U87A U119A | 0.13 |
| A67C G75A A77G | 0.07 |
| A2G A64U U115C A117G G127A | 0.85 |
| A31G U46A U115A | 0.24 |
| U52G U73C C113U | 1.91 |
| U15A A77C U108C | 0.2 |
| A92G C98U U115C A136G | 0.07 |
| U12C U20A U62A A64U A141G | 0.09 |
| U13C U62A A129U A140G | 0.08 |
| G32C A79G G83A U85C | 0.12 |
| A6U C84G A124C G126A | 0.11 |
| G8A G48A G82A | 1.89 |
| U45C U115C A138U | 2.77 |
| U26A A121G A141G | 1.33 |
| U47G U91A A140G | 0.48 |

| Variant | self-cleavage |
| --- | --- |
| U52A A57G A78G | 0 |
| A6G U47A U143C | 0.7 |
| U14C A79C U87C | 0.54 |
| U85C U96C A136U | 0.09 |
| U39C U52C C76A U104C A117C | 3 |
| G34A A57U A129G | 0.04 |
| U39A A69G U104C | 1.75 |
| U13C U46C A79G U132C | 1 |
| A43C U62C A117C U132C | 0.14 |
| G40C A67U A136U | 0.12 |
| U13C G27A A107G | 1.88 |
| G25A A31G U81C U108A | 1.5 |
| U104A U119C A124G A141G | 0 |
| U20C A117G A141G A142G | 1.72 |
| U85C A94U G125A A129G A136G | 0.16 |
| U23C U46C G89A A141G | 0.17 |
| A43G U62C A69U U96A U109C U143C | 0 |
| U5A A42C C146U | 0.82 |
| A22G U39C U52C | 0.61 |
| G35C U96A C146U | 0.04 |
| A57G U87A A138G | 0.08 |

| Variant | self-cleavage |
| --- | --- |
| U13C G34U G41A A50G A69U A129U | 0.13 |
| U91C G126U A140G | 0.5 |
| U15C U39C U47C C61A U81C A94G | 0.24 |
| U9C A22U A67G G82A A92G | 0.18 |
| A30G A92G U104C A141G | 0 |
| C3A A57G U100A | 0.19 |
| G33A A69U A117C U132C | 0 |
| C19U U119A U134C | 1.32 |
| A22U U47C A78G | 1.33 |
| U13C A59G A78G U96C A142G | 0 |
| G32U U47C U100A A124G | 1.23 |
| A30U U109C A136G | 1.68 |
| A24G G80A A94G | 0.53 |
| A57G A59G G86A U100G U115A | 0 |
| A107G G139U A141G | 1.8 |
| U29A U39C U46A A69U A78G | 0 |
| U1C G34A U47C | 0.76 |
| U20C U39C A43G | 1.59 |
| U5C U26A C84U | 0.3 |
| A64U U73A A77U U132A | 0.27 |
| U29C U85A U134C | 0.18 |

| Variant | self-cleavage |
| --- | --- |
| U14G A43G A64G A67U | 0 |
| U13C G36A U87C A94G | 0.38 |
| U52A A77U U85A A129U | 0.06 |
| U14A A43G U45C | 1.87 |
| U20C A42U U62C A69C U85A C145U | 0 |
| A22U U26C U46A U73A U119A A141G | 1.27 |
| U15C G21A U100C | 0 |
| C38A U46A A138U | 1.1 |
| A69U U73A A129G | 0.08 |
| G11A U47C U102C | 1.19 |
| U1C A42U U96C | 0.11 |
| A50G U62A U73G U108C | 0.11 |
| U39A G72U C101A | 2.63 |
| U13G U23C U26A G97A A129U U134C | 0.19 |
| U26A A43G A67G U73C A142G | 0 |
| U15C G34A A79G A107G G122A | 2.22 |
| U87C A129U A138U | 0.22 |
| U1C A2G G139U | 0.85 |
| A24U U45C U109C A124G | 1.23 |
| U13C C76A U81C | 1.75 |
| A24G U52A G58A A69G U91C A117U U132C A141G | 0 |
